The results in this text go back to US20210340214A1 (Five Prime, published 2021).

The target of this assay is T1, CTLA-4 (UniProt P16410 36-161, limits assumed).
T1 construct: Cell-free CTLA-4 reagent of the SPR and ELISA studies; also called cytotoxic T-lymphocyte-associated antigen-4
T1 sequence (looked up): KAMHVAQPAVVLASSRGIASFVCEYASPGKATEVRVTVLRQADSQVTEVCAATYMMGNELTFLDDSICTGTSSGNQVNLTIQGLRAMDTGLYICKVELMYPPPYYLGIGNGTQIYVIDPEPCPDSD
Kind of assay: CTLA-4 binding ELISA.

B1: human CD80 ECD:human IgG Fc fusion protein comprising the amino acid sequence of SEQ ID NO:5 (Fc fusion)
chain: VIHVTKEVKEVATLSCGHNVSVEELAQTRIYWQKEKKMVLTMMSGDMNIWPEYKNRTIFDITNNLSIVILALRPSDEGTYECVVLKYEKDAFKREHLAEVTLSVKADFPTPSISDFEIPTSNIRRIICSTSGGFPEPHLSWLENGEELNAINTTVSQDPETELYAVSSKLDFNMTTNHSFMCLIKYGHLRVNQTFNWNTTKQEHFPDN[letters of human IgG1 Fc with changes omitted]
notes: also called hCD80ECD:hIgG1Fc; HCD80ECD:hIgG1Fc
What is called EC50 is the concentration at which the effect is half-maximal. Consider B1, for which a half-maximal effect (EC50) was put at 0.034 µg/mL.
